In all, about 310,000 compounds went through this assay and about 2,200 (0.71%) showed an effect of 50% or more. Effects have a minus sign here. The list shows a part of the results.
Biological target: human ether-à-go-go-related gene (hERG) potassium channel (human, UniProt Q12809)
Experiment: primary screen, population patch clamp on CHO cells stably expressing hERG

Sequence of human ether-à-go-go-related gene (hERG) potassium channel (Q12809 whole entry, looked up): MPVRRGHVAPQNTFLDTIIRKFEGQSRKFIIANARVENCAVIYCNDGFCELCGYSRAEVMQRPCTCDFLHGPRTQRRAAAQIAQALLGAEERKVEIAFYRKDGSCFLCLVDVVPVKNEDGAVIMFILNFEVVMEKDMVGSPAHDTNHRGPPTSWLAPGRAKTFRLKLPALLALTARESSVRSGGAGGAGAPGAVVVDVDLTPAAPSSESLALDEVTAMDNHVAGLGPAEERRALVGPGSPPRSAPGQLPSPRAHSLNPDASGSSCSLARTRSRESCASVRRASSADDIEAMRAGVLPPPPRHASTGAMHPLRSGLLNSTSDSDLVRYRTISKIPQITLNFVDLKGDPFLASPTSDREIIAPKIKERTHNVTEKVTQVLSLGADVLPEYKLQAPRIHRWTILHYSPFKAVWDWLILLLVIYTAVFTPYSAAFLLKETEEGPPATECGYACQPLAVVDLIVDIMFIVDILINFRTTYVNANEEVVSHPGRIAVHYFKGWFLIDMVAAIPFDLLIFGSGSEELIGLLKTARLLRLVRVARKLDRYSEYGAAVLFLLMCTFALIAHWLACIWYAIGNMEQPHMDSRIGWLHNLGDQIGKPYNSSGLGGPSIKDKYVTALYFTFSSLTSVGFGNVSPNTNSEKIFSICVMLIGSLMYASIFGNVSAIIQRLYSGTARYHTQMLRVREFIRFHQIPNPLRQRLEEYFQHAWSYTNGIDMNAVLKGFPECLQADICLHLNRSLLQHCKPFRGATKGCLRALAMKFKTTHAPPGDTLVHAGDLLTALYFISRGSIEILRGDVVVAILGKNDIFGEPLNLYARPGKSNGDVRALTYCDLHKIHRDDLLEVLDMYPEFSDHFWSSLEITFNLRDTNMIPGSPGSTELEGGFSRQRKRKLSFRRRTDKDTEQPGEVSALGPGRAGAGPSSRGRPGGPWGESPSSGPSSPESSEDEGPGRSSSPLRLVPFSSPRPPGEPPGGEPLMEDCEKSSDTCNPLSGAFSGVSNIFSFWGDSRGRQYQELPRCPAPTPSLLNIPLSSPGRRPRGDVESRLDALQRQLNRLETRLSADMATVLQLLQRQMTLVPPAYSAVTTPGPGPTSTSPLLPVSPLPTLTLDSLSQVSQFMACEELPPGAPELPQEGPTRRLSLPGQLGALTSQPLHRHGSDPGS

Row | Structure (SMILES) | hERG current change (%, negative = inhibition) at 1uM [%]
1 | C=Cc1c(C)c2cc3[nH]c(cc4nc(cc5nc(cc1[nH]2)C(C)=C5CCC(=O)O)C(CCC(=O)O)=C4C)c(C)c3C=C | 13.8
2 | COc1ccc(-n2c(SCC(=O)Nc3ccc(C(N)=O)cc3)nc3c([nH]c4ccccc43)c2=O)cc1OC | 12.8
3 | CC(=O)NC(=S)Nc1ccc(NC(=S)NC(=O)/C=C/c2ccco2)cc1 | 11
4 | O=C(c1ccccc1)c1c[nH]c(C(=O)NCCCN2CCOCC2)c1 | -4.29
5 | Cc1nn(-c2ccc(Cl)cc2)c(NC(=O)C(C)C)c(-c2ccccc2)c1=O | 9.38
6 | Cn1nc(-c2ccc(Cl)cc2)cc1NC(=O)Nc1ccccc1 | 15.2
7 | O=C(N/N=C/c1ccc(N2CCOCC2)cc1)c1ccccc1NS(=O)(=O)c1cccs1 | 10.1
8 | Cc1[nH]c(C)c2c(=O)[nH]ncc12 | 13
9 | Cc1ccc(C(=O)C(C(=O)/C=C/c2ccccc2)=C2SCCCS2)cc1 | 8.71
10 | O=S(=O)(c1ccccc1)c1nc(-c2ccc(F)cc2)oc1N1CCOCC1 | -8.68
11 | COc1cccc(/C=N/NC(=O)COc2cccc3cccnc23)c1O | 8.24
12 | O=C(Nc1ccc(-c2n[nH]c(=S)o2)cc1)c1ccccc1 | 9.1
13 | O=S(=O)(Nc1ccc2c(c1)OCCO2)c1ccc(Br)s1 | 0.759
14 | CCOC(=O)c1cc(-c2ccc(F)cc2)n(CC(=O)NCc2cccnc2)c1C | -10.2
15 | Brc1cccc2sc(N3CCN(c4ccccc4)CC3)nc12 | 14.1
16 | Cc1cccnc1Oc1ncccc1N | 18.2
17 | CCOC(=O)CNC(=O)CN1CCCN(S(=O)(=O)c2ccc(Br)s2)CC1 | -10
18 | Cc1ccccc1OCC(O)CN1CCN(CC(O)COc2ccccc2C)C(C)C1.O=C(O)C(=O)O (stereo not drawn) | -29
19 | COc1ccc2c(c1)c(=O)oc1cc(OCC(=O)N3CCc4ccccc4C3)ccc12 | 2.91
20 | Cc1c(-n2c(SCC(=O)N(C)C3CCS(=O)(=O)C3)nc3ccccc3c2=O)c(=O)n(-c2ccccc2)n1C (stereo not drawn) | 13.7
21 | Cc1c(C(=O)N/N=C/c2cccnc2)sc(N)c1C#N | 13.7
22 | O=C(NCc1ccco1)Nc1ccc2nsnc2c1 | 3.27

Row | Structure (SMILES) | hERG current change (%, negative = inhibition) at 1uM [%]
23 | COc1cccc(OC)c1OCCCN1CCOCC1 | 10.1
24 | CC(=O)Nc1ccc2nc(C3CC3)n(Cc3ccc(Cl)cc3)c(=O)c2c1 | 7.75
25 | COc1ccc(NC2CCCN(C(=O)CSc3ccncc3)C2)cc1 (stereo not drawn) | -0.247
26 | COc1ccc(S(=O)(=O)NN(C)c2nc(C(F)(F)F)nc3ccccc23)cc1 | 7.56
27 | COCc1c(C(=O)Nc2ccc3nc(N4CCOCC4)sc3c2)oc2ccccc12 | -9.89
28 | CC(C)(O)P(C)(=O)c1ccccc1 (stereo not drawn) | 12.5
29 | O=C(O)c1cccc(S(=O)(=O)N2CCSCC2)c1 | 5.38
30 | CCCCOC(=O)n1c(SCC(=O)N(C)C)nc2ccccc21 | -11.6
31 | Cc1ccc(NC2CC(=O)N(c3cccc([N+](=O)[O-])c3)C2=O)cc1 (stereo not drawn) | 0.207
32 | CC(=O)Nc1ccc(C2Nc3cc(C)c(C)cc3NC3=C2C(=O)CC(C)(C)C3)cc1 (stereo not drawn) | 5.89
33 | COc1ccc(S(=O)(=O)N2CCCCCC2)cc1NC(=O)CN(C)Cc1ccc2c(c1)OCO2 | 3.49
34 | CCn1c(=S)sc2c(=O)n(CC(=O)Nc3cccc(Cl)c3)c(C)nc21 | 10.7
35 | OCCN1CCN(c2cc(C(F)(F)F)nc3c(F)cccc23)CC1 | 9.83
36 | COc1cccc(C2NC(=O)NC(C)=C2C(=O)Nc2ccc(C)cc2)c1OC (stereo not drawn) | 6.84
37 | COc1ccccc1NC(=S)NC1CCCCC1 | 11.2
38 | CC(=O)c1cccc(NS(=O)(=O)N(C)C)c1 | 15.9
39 | N/C(Cc1cccc2ccccc12)=N\OC(=O)c1ccccc1F | 10.4
40 | CC(C)(C)C(=O)Nc1cccc(-c2nc3ccccc3c(=O)o2)c1 | 1.39
41 | CC(C)CN(C(=O)CSc1nn(-c2ccc(Cl)cc2)c(=S)s1)C1CCS(=O)(=O)C1 (stereo not drawn) | 3.1
42 | O=C(CS(=O)(=O)Cc1ccccc1)Nc1ccc2c(c1)OCO2 | 12.5
43 | O=C(NCCc1ccccc1)c1cc(-c2ccccc2)c(N2CCOCC2)s1 | 10.6
44 | CCC(C)C(=O)Nc1cc(C(=O)OC)ccc1C(=O)OC (stereo not drawn) | -4.39

Row | Structure (SMILES) | hERG current change (%, negative = inhibition) at 1uM [%]
45 | CCOC(=O)c1cnc2c(ccc3ccccc32)c1N | 16.7
46 | CC(=O)Cn1cnc2sc(-c3ccccc3)cc2c1=O | 3.26
47 | O=c1cc(-c2ccccc2)cc(-c2ccccc2)n1CCCO | -2.74
48 | CCOc1ccc(-n2c(=O)c3c(C)c(C(=O)N(C)C)sc3n(CC(=O)Nc3ccccc3F)c2=O)cc1 | 7.7
49 | O=C1CSC(c2cccc(F)c2)N1c1c(F)cccc1F (stereo not drawn) | 5.86
50 | Cc1ccc(CN2CCN(Cc3cccn3-c3ccccn3)CC2CCO)o1 (stereo not drawn) | -59.5
51 | CC(=O)Nc1ccc(S(=O)(=O)c2ccc(N)cc2)cc1 | 7.62
52 | CCOC(=O)C(CC)Sc1nnc2cc(C)c3ccccc3n12 (stereo not drawn) | -20.5
53 | COc1ccc(C(=O)/C=C/c2ccc(OCc3ccccc3)cc2)cc1CSCC(=O)O | -4.12
54 | CCN(CC(=O)NC1CCS(=O)(=O)C1)S(=O)(=O)c1ccc(C)cc1C (stereo not drawn) | 12.2
55 | O=C(CCCC(=O)N/N=C\c1ccccn1)N/N=C\c1ccccn1 | 1.24
56 | CCOc1ccc(N=C(NC#N)SCC)cc1 | 1.85
57 | CC1CCN(C(=O)CSc2nnc(CNc3ccc(F)cc3)n2Cc2ccco2)CC1 | -13.3
58 | CC(=O)NC12CC3CC(C1)CC(C(=O)OCC(=O)c1ccc4c(c1)OCCO4)(C3)C2 | 9.85
59 | COc1ccc(CN(C)S(=O)(=O)c2nnc(NC(=O)c3cccc(F)c3)s2)cc1 | 13.4
60 | CC(C)OC(=O)c1nn2c(C(F)(F)F)cc(-c3ccco3)nc2c1Cl | 18.1
61 | Cc1ccc(CS(=O)(=O)Cc2ccc(C(=O)NCCCN3CC(C)CC(C)C3)o2)cc1 (stereo not drawn) | -41.2
62 | Cn1c(NNC(=O)C(c2ccccc2)c2ccccc2)cc(=O)n(C)c1=O | 8.72
63 | CC1CCC(C(C)C)C(OCC[N+](C)(C)C)C1 (stereo not drawn) | 8.65
64 | CSc1ncccc1C(=O)OCC(=O)NCc1ccccc1 | -4.9
65 | COc1cc(C2NC(=O)CCC2[N+](=O)[O-])c(OC)cc1Br (stereo not drawn) | 13.6
66 | CC(=O)N1CCN(Cc2nc(-c3cccc(Cl)c3)no2)CC1 | 25.6

Row | Structure (SMILES) | hERG current change (%, negative = inhibition) at 1uM [%]
67 | O=c1c(-c2ccc(F)cc2)[n+]([O-])c2ccccc2n1OCc1ccccn1 | 9.71
68 | Cc1nc(SCC(=O)NCC2CCCO2)[nH]c(=O)c1C (stereo not drawn) | 11.7
69 | CCn1ccc(C(=O)Nc2cccc(Cl)c2)n1 | 18.3
70 | Cc1ccc(-c2oc3ncnc(N)c3c2-c2ccc(C)cc2)cc1 | -3.25
71 | CCCCN(C(=O)CCC(=O)OCC(=O)NCc1ccccc1)c1c(N)n(CCC)c(=O)[nH]c1=O | 3.16
72 | COc1cccc(NC(=O)C2CSC3(C)CCC(=O)N23)c1 (stereo not drawn) | 9.45
73 | COc1cc(NC(=O)CCCNC(=O)Cn2cnc3sc4c(c3c2=O)CCCC4)cc(OC)c1OC | 23.1
74 | OCC[C@H]1C[C@H](O)[C@@H](O)[C@]2(CCCO2)O1 | 18.8
75 | CC1CCc2cc(F)ccc2N1C(=O)CSc1nnc2c3ccccc3n(C)c2n1 (stereo not drawn) | 36.1
76 | O=C(N[C@@H](Cc1ccccc1)C(=O)OCc1ccccc1)c1nc[nH]c1C(=O)N1CCc2ccccc2C1 | 10
77 | COc1cccc(-c2nc(CS(=O)(=O)CC(=O)NC3CCCCC3C)c(C)o2)c1 (stereo not drawn) | -3.64
78 | Oc1ccccc1N1CCN(C(c2ccccc2)c2ccccc2)CC1 | 13.7
79 | O=C(OCc1nnc(-c2ccccc2)o1)C1CC(=O)N(CCc2ccccc2)C1 (stereo not drawn) | 8.19
80 | O=C(O)CCCn1cc(NC(=O)COc2ccccc2[N+](=O)[O-])cn1 | 12
81 | CCn1cc(/C=C(\NC(=O)c2ccc(OC)c(OC)c2)C(=O)NCCCO)c2ccccc21 | 15.8
82 | COCC(C)n1c(SCC(=O)Nc2oc(C)c3c(C)n[nH]c(=O)c23)nc2ccccc2c1=O (stereo not drawn) | 16.7
83 | CCOC(=O)C1=C(CSc2nc3c(cc2C#N)CN(C)CC3)OC(N)=C(C#N)C1c1ccncc1 (stereo not drawn) | 12.1
84 | Cc1cc(C)cc(NC(=O)C(Sc2nnc(C)c(=O)[nH]2)c2ccccc2)c1 (stereo not drawn) | 12.8
85 | Cc1onc(-c2c(F)cccc2Cl)c1C(=O)NCc1ccccn1 | 12.3
86 | O=C(CS(=O)CC(=O)N(CC(=O)NC1CCCC1)C1CCCCC1)Nc1ccc(F)cc1 (stereo not drawn) | 4.06
87 | O=C(Nc1cccc(NC(=O)c2cccs2)c1)c1ccc2c(c1)OCCO2 | 6.14

— publication PMC4336329 (PLoS ONE, 2015)
